Measured values reported in PubChem BioAssay AID1466 (National Center for Advancing Translational Sciences (NCATS), 2008).
The campaign covered roughly 200,000 compounds. About 10 (0.005%) were called active. The inconclusive results got no clear call from the source; some entries with a clear call stand among them for comparison. Calls follow the shape of the dose curve; as a rule, active = well fitted inhibition curve with a large enough effect; inconclusive = small, poorly fitted or top-dose-only effect, or effect the other way, or another doubt; inactive = no such curve, though single readings can be large or run the other way. Potencies of inconclusive entries are left out as doubtful fits.

The compounds below were run against Lysosomal alpha-glucosidase (Homo sapiens) (UniProt P10253) (assay: qHTS Assay for Inhibitors of Human alpha-Glucosidase as a Potential Chaperone Treatment of Pompe Disease). Conditions: purified human GAA, 4-MU-alpha-glucoside fluorescence; activity change, negative = inhibition: at 76.9 µM (top of the series) unless noted.
In short: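 qHTS format, compound range up to 77 uM. Human lysosomal enzyme at 4 nM, 400 uM 4-MU glucoside substrate, pH 5.0, 20 min room temperature; fluorescence after alkaline stop gives activity normalized to controls.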
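For activity change, negative = inhibition in this document: plate controls were uninhibited enzyme wells for no effect and no-enzyme background for full effect.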
Potency is read from the fitted curve at half-maximal effect; tags tell the direction and shape of the fitted curve.

Row | Compound | activity change, negative = inhibition | Potency
1 | c1csc(CNc2nc(-c3cccs3)nc3ccccc23)c1 | inconclusive: -16.4% [inhibitor] | –
2 | CC(=O)Nc1ccc(S(=O)(=O)Nc2cccc(C(=O)NC(C)(C)C)c2)cc1 | – | inconclusive [inhibitor, full curve]
3 | CS(=O)(=O)c1ccc2nc(NC(=O)Oc3ccccc3)sc2c1 | – | inconclusive [inhibitor, single point]
4 | COc1ccc(-c2[nH]ncc2/C=N\NC(=O)c2ccc(C(C)(C)C)cc2)cc1OC | – | inconclusive [inhibitor, single point]
5 | Cc1cc(C)n(Cc2ccc(NC(=O)c3c([N+](=O)[O-])c(C)nn3C)cc2)n1 | inconclusive: 15.2% [activator] | –
6 | COc1cccc(NC(=S)NNC(=O)c2c([N+](=O)[O-])c(C)nn2C)c1 | – | inactive
7 | Cc1ccc(NC(=O)c2ccco2)c(NC(=O)Cc2cccs2)c1 | inconclusive: 16.6% [activator] | –
8 | CC(C)(C)n1nnnc1C(c1ccncc1)N1CCN(c2ccc(O)cc2)CC1 (stereo not given) | – | inactive
9 | O=C(Nc1nccs1)c1ccc(N2C(=O)C3CCCCC3C2=O)cc1 (stereo not given) | inconclusive: 13.1% [activator] | –
10 | O=C(COc1ncnc2sccc12)N1CCN(S(=O)(=O)c2ccc(Cl)cc2)CC1 | – | inconclusive [inhibitor, single point]
11 | Cc1ccc(-c2[nH]c3ccccc3c2C(C[N+](=O)[O-])c2ccco2)cc1 (stereo not given) | – | inconclusive [inhibitor, partial curve]
12 | CCC(CC)C(=O)Nc1ccc(C)c(O)c1 | – | inconclusive [inhibitor, full curve, poor fit]
13 | CCSc1nnc(NC(=O)c2ccc(C)cc2)s1 | – | inconclusive [inhibitor, partial curve, poor fit]
14 | Cc1ccc2[nH]c(=O)c(-c3nc4ccccn4c3NCc3ccco3)cc2c1 | – | inactive
15 | CCOc1ccc2c(c1)s/c(=N\S(=O)(=O)c1ccc(OC)cc1)n2C(F)F | – | inactive
16 | COc1cccc(NC(=O)CSc2nc3c(sc4ccccc43)c(=O)n2CCN(C)C)c1 | – | inconclusive [activator, partial curve]
17 | CN=c1scc(C)n1/N=C/c1cc(Br)c(O)c(OC)c1 | – | inactive
18 | CCOc1ccccc1C(=O)OCC(=O)Nc1cc(Cl)ccc1Oc1ccccc1 | – | inconclusive [inhibitor, single point]
19 | C=CCc1cccc(/C=N/c2ncccc2O)c1O | – | inactive
20 | COCC1CCN(Cc2cn[nH]c2-c2cc(OC)c(OC)c(OC)c2)CC1 | inconclusive: 20.6% [activator] | –
21 | CSc1nc2oc3c(c2c2nncn12)CC(C)(C)SC3 | – | inconclusive [activator, partial curve]
22 | Cc1ccc(-c2csc3nc(SCC(=O)N(C)C)n(Cc4ccccc4)c(=O)c23)cc1 | – | inconclusive [inhibitor, single point]
23 | CCC1CCCN1Cn1cnc2c([nH]c3ccc(OC)cc32)c1=O (stereo not given) | inconclusive: 16.1% [activator] | –
24 | c1ccn2c(c1)nc1c2nc2ccccn21 | – | inconclusive [activator, partial curve]

Row | Compound | activity change, negative = inhibition | Potency
25 | Cc1nnc(SCC(=O)N2CCN(S(=O)(=O)c3ccccc3)CC2)[nH]c1=O | – | inconclusive [inhibitor, single point]
26 | COC(=O)C(CCCN1C(=O)c2ccccc2C1=O)(NC(C)=O)c1nnn(C)n1 (stereo not given) | inconclusive: 16.2% [activator] | –
27 | COc1ccccc1NC(=S)N(CCCN1CCOCC1)Cc1cn(C)c2ccccc12 | – | inactive
28 | CCOc1ccc(C2Nc3ccc4ccccc4c3-c3c2c(=O)oc2ccccc32)cc1 (stereo not given) | – | inconclusive [activator, partial curve, poor fit]
29 | O=c1cc(-c2ccccc2Cl)oc2cc(O)cc(O)c12 | – | inactive
30 | CN1CCC(N(C)C(=S)Nc2ccc(SC(F)F)cc2)CC1 | – | inconclusive [inhibitor, single point]
31 | O=C(CCCN1C(=O)/C(=C\c2cccs2)SC1=S)Nc1cccc(C(=O)O)c1 | – | inconclusive [inhibitor, single point]
32 | CC(C)N1CCc2c(sc(N)c2C#N)C1 | – | inconclusive [activator, single point]
33 | Cc1ccccc1-c1nn[nH]n1 | – | inconclusive [inhibitor, partial curve]
34 | O=C(COC(=O)CNC(=O)c1ccccc1)Nc1ccc(S(=O)(=O)N2CCOCC2)cc1 | – | inconclusive [inhibitor, partial curve]
35 | COCc1nnc(N)s1 | inconclusive: -19% [inhibitor] | –
36 | CCN1CCN(c2cc(SC(C)C)nc(-c3ccc(OC)cc3)n2)CC1 | – | inconclusive [inhibitor, single point]
37 | CC(=O)c1cnc(Nc2nc(C)c3cccc(C)c3n2)nc1C | – | inconclusive [inhibitor, single point]
38 | O=C(Nc1ccc(N2CCOCC2)cc1)c1ccc2nc(-c3ccco3)c(-c3ccco3)nc2c1 | – | inconclusive [inhibitor, full curve, poor fit]
39 | CN(C)/N=C/c1c(O)ccc2ccccc12 | – | inactive
40 | O=C(NCC1CCCO1)c1cc(-c2ccccc2)nc2ccccc12 (stereo not given) | inactive: -10.8% [at 15.4 µM] | –
41 | C=CCn1c(SCC(=O)c2ccc(NS(=O)(=O)c3ccccc3)cc2)nnc1-c1cccs1 | inconclusive: -17.1% [inhibitor] | –
42 | O=C(O)c1nn2cc(CCO)cnc2c1Cl | inconclusive: 21.6% [activator] | –
43 | CCN1CCN(C(c2cc3cc4c(cc3[nH]c2=O)OCO4)c2nnnn2C(C)(C)CC)CC1 (stereo not given) | – | inconclusive [activator, partial curve]
44 | O=C(Cc1ccccc1F)c1ccc(O)cc1O | inconclusive: 15.6% [activator] | –
45 | Cc1ccccc1Cn1nnc(-c2cccc(C(=O)O)c2)n1 | inconclusive: -15.7% [inhibitor] | –
46 | Cc1ccc(C(=O)N2CCSC2=S)cc1 | inconclusive: 17.2% [activator] | –
47 | NC(=O)C1CCN(C(=S)NCc2ccc3c(c2)OCO3)CC1 | – | inconclusive [activator, full curve, poor fit]
48 | Cc1ccc(CSc2nc3c(cc2C#N)CCC3)cc1 | – | inconclusive [inhibitor, single point]

Row | Compound | activity change, negative = inhibition | Potency
49 | CCOC(=O)c1[nH]c2ccc(OC)cc2c1NC(=O)CN1CCC2(CC1)OCCO2 | inconclusive: 17.3% [activator] | –
50 | CC1CCCC(NC(=O)c2ccc3c(=O)n(CC4CCCO4)c(=O)[nH]c3c2)C1C (stereo not given) | – | inconclusive [activator, partial curve]
51 | CC(C)(C)c1csc(NNC(=O)c2ccc(Br)cc2)n1 | – | inconclusive [inhibitor, single point]
52 | CCOC(=O)N1CCN(S(=O)(=O)/C=C/c2ccccc2)CC1 | – | inconclusive [inhibitor, full curve, poor fit]
53 | COc1ccccc1C(c1nnnn1Cc1ccccc1)N1CCN(c2nc3ccccc3s2)CC1 (stereo not given) | – | inconclusive [inhibitor, single point]
54 | O=C1CSC(=Nc2ccccc2[N+](=O)[O-])N1 | inconclusive: 13.8% [activator] | –
55 | CN(C)c1ccc(/C=N/NC(=O)CCC(=O)NCc2ccccc2)cc1 | – | inconclusive [activator, single point]
56 | O=c1c2ccccc2nc2c3ccccc3c(NCc3cccnc3)nn12 | – | inconclusive [activator, partial curve]
57 | O=C(Nc1ccc(Sc2ccc(Br)cc2)cc1)c1ccco1 | – | inconclusive [inhibitor, partial curve]
58 | CC(C)c1cc(NCc2ccccn2)n2c(nc3ccccc32)c1C#N | – | inconclusive [activator, partial curve]
59 | Cc1[nH]nc(N2CCCCCC2)c1[N+](=O)[O-] | inconclusive: 3.57% [activator] | –
60 | c1coc(-c2nnc(-c3ccc4c(c3)OCO4)o2)c1 | – | inconclusive [inhibitor, single point]
61 | CCC(CO)NCc1sccc1C (stereo not given) | inconclusive: 8.29% [activator] | –
62 | Cc1cc(C)n2c(SCC(=O)N3CCN(S(=O)(=O)c4ccc(Cl)cc4)CC3)nnc2n1 | – | inconclusive [inhibitor, partial curve]
63 | CCCCNC(=O)C1CCN(S(=O)(=O)N2CCCCCC2)CC1 | – | inconclusive [inhibitor, partial curve, poor fit]
64 | COc1ccccc1CNC(=O)c1cccs1 | inconclusive: -17.3% [inhibitor] | –
65 | Cn1c(=O)n(C)c2cc(S(=O)(=O)Nc3cc(Cl)ccc3O)ccc21 | – | inactive
66 | COC(=O)Cc1ccc(NC(=S)N2CCN(c3cccc(O)c3)CC2)cc1 | – | inconclusive [inhibitor, single point]
67 | COc1nc(NCc2ccco2)nc(N2CCC(C)CC2)n1 | – | inconclusive [inhibitor, single point]
68 | CCCc1cc(=O)oc2c(CN3CCCC3)c(O)c(Cl)cc12 | – | inconclusive [activator, partial curve]
69 | COc1ccc(C(=O)/C=C2/c3ccccc3CC(C)(C)N2C)cc1OC | inconclusive: -15.1% [inhibitor] | –
70 | COc1ccc(NC(=O)c2oc3ccc(S(=O)(=O)N4CCC5(CC4)OCCO5)cc3c2C)cc1 | – | inconclusive [inhibitor, partial curve, poor fit]
